Data on 89 compounds can be found in PMC4336329 (PLoS ONE, 2015).

Hit rate of the full screen: of about 310,000 compounds, about 14,000 (4.5%) showed an effect of 50% or more. The effect is printed as a negative number. The list shows a part of the results.
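Note: peak tail current of the secondary pulse compared with the same well before compound.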

The target in this experiment is human ether-à-go-go-related gene (hERG) potassium channel (human, UniProt Q12809). Briefly: primary screen, population patch clamp on CHO cells stably expressing hERG.
Chain of human ether-à-go-go-related gene (hERG) potassium channel (Q12809 whole entry, looked up): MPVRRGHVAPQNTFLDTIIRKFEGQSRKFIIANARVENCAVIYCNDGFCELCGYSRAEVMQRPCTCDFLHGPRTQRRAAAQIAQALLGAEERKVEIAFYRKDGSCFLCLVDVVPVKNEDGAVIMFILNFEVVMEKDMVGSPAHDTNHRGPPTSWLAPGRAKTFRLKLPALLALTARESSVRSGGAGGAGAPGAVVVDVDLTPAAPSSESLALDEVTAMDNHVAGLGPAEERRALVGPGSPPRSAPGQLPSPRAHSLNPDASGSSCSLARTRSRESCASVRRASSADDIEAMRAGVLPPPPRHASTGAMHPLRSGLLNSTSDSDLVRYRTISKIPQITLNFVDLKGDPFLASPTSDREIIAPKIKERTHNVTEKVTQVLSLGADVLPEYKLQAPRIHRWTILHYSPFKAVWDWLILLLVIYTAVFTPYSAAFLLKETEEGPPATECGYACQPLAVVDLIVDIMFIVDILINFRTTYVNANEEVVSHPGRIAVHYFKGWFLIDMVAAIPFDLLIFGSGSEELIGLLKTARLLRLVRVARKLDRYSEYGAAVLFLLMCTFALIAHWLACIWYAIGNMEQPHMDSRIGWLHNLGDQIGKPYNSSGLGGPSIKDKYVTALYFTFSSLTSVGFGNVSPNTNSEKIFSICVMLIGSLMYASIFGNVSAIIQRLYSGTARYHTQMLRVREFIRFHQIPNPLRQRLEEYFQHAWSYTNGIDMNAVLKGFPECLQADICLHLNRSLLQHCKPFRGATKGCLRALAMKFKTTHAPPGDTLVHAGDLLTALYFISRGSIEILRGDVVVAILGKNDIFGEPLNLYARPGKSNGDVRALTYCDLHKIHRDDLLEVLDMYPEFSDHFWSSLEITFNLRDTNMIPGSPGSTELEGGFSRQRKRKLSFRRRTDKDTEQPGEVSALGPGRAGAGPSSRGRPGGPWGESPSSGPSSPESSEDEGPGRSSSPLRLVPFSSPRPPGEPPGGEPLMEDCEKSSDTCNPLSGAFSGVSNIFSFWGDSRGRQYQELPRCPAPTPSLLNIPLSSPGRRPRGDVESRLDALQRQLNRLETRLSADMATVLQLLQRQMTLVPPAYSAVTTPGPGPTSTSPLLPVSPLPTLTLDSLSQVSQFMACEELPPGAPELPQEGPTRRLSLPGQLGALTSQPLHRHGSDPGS
Take `Cc1ccc(/C=C2\SC(=S)N(c3cccnc3)C2=O)o1`: the “hERG current change (%, negative = inhibition) at 10uM” value stood at 6.67%. Next, `COc1ccc(Cl)cc1C(=O)Nc1nc(C)cc(C)n1`: 15.2%. Consider `O=C(O)C1C2C=CC(C2)C1C(=O)NCc1cccnc1` (centres unmarked), for which the “hERG current change (%, negative = inhibition) at 10uM” value is on record as -6.8%. Next, `O=C1CCC(C(=O)N2CCCCO2)CN1CCc1ccccc1` (centres unmarked): -8.39%; `Cc1nc2cc(C(F)(F)F)ccc2n1C1CCN(CC(=O)N2CCOCC2)CC1`: -44.4%; `O=C1NNC(=O)C1c1ccccc1`: 25.7%. In the case of `c1ccc(Cn2c(Nn3cnnc3)nc3ccccc32)cc1` it was -26.6%. Next, `COc1cc(CNCCc2ccc(S(N)(=O)=O)cc2)ccc1OCC(=O)N1CCCCC1.Cl`: 23.3%; `O=[N+]([O-])c1ccc(-n2nncc2-c2ccccc2)cc1`: -29.4%; `COc1cc(C(=O)OCC(=O)Nc2cccc(S(=O)(=O)N3CCCC3)c2)ccc1OCC(C)C`: -2.3%. Turning to `Cc1nc2cc(NS(=O)(=O)c3ccc(Br)cc3)ccc2n1C`, the “hERG current change (%, negative = inhibition) at 10uM” value is listed as 1.73%. Next, `Cc1cc(=O)oc2cc(NS(=O)(=O)c3ccc(F)cc3)ccc12`: 18.3%. Turning to `Cc1ccccc1CSCC(=O)N1CCN(c2ccccc2)CC1`, the “hERG current change (%, negative = inhibition) at 10uM” value is on record as -35.5%. Next, `C=CCNC(=O)c1onc(CSc2ccccn2)c1C(=O)NCC=C`: -7.02%. In the case of `S=C(NCc1cccs1)Nc1ccccc1` it was 7.71%.

For `O=C(COC(=O)c1ccccc1C(=O)c1ccccc1)Nc1cccc([N+](=O)[O-])c1`, the “hERG current change (%, negative = inhibition) at 10uM” value is reported as -20.5%.

Turning to `Cc1nc(CN2CCN(C(=O)NC3(c4ccccc4)CC3)CC2)cs1`, the “hERG current change (%, negative = inhibition) at 10uM” value is listed as -1.15%. As for `Cc1ccc(NC(=O)C2CCCN2C(=O)Oc2ccccc2)c(C)c1` (centres unmarked), the “hERG current change (%, negative = inhibition) at 10uM” value was determined as 11.1%.

For `OCCOc1ccc(CN2CCN(CCCc3ccccc3)C(CCO)C2)cc1` (centres unmarked), the “hERG current change (%, negative = inhibition) at 10uM” value was -63.3%.

Regarding `O=C(NCc1ccccc1)c1ccc(Cn2cc(C(F)(F)F)ccc2=O)cc1`, the “hERG current change (%, negative = inhibition) at 10uM” value is -24.4%.

Regarding `CC(C)Sc1nnc2n(CCc3ccccc3)c(=O)c3c4c(sc3n12)COC(C)(C)C4`, the “hERG current change (%, negative = inhibition) at 10uM” value turned out to be 4.77%. In the case of `CCN(CC)c1nc2c(c(=O)[nH]c(=O)n2C)n1Cc1ccccc1Cl` it was 9.51%; in that of `CCO.COc1cc(C2C(C#N)=C(N)N(N(C)C)C3=C2C(=O)CC(C)(C)C3)ccc1O` (centres unmarked), -1.14%. In the case of `O=Nc1c(-c2ccccc2)cc2ccccn12` it was 15.4%; in that of `CN1CCCN(C(=O)c2ccc(Cl)c(S(=O)(=O)N(C)c3ccccc3)c2)CC1.Cl`, -12.6%. Next, `O=C(N=C1SC2CS(=O)(=O)CC2N1CCc1ccc(F)cc1)C1CCCCC1` (centres unmarked): 18.6%; `CN(C)CCOCCOc1ccccc1-c1ccccc1.O=C(O)C(=O)O`: -17.7%.

Turning to `CCOc1ccc(-c2ccc(SCC(=O)NC3CCCCC3)nn2)cc1`, the “hERG current change (%, negative = inhibition) at 10uM” value worked out at 20%.

As to `CC(=O)c1cc2c(cc1NS(=O)(=O)c1ccccc1F)OCO2`, the “hERG current change (%, negative = inhibition) at 10uM” value is reported as -14.6%. Next, `CN1C(=O)/C(=C\c2ccncc2)SC1=Nc1ccccc1`: -11.2%. Next, `COc1ccc(NC(=O)c2nc(-n3nc(C)cc3C)ccc2Cl)cc1Cl`: 9.39%; `COc1ccc(/C=N/Nc2nc3ccccc3[nH]2)cc1OC`: -21.8%.

Regarding `CCOc1ccc(C(=O)N2CCN(c3ccccn3)CC2)cc1`, the “hERG current change (%, negative = inhibition) at 10uM” value is recorded as -26.7%. Next, `Cc1ccc(NC2=CC(=O)CCC2)cc1C`: -2.29%; `Cc1ccc(C)c(C(=O)CCC(=O)N2CCN(c3ncccn3)CC2)c1`: 2.86%. In the case of `Cc1ccccc1OCC(=O)N(Cc1cccs1)C1CCS(=O)(=O)C1` (centres unmarked), the “hERG current change (%, negative = inhibition) at 10uM” value was -27.8%. On to `CCN(CC)C(=S)SCC(=O)Nc1ccc(S(N)(=O)=O)cc1`, for which the “hERG current change (%, negative = inhibition) at 10uM” value is listed as 3.17%.

`COc1cc(CNCc2cc(OC)ccc2OC)cc(OC)c1.O=C(O)C(=O)O`: the “hERG current change (%, negative = inhibition) at 10uM” value is listed as 5.79%. Next, `Cc1ccc(NC(=O)N2CCC(NC(=O)C(C)(C)C)CC2)cc1`: 10.1%; `COc1cc(C)nc(Oc2ccc(OCCOc3ccc(C)cc3)nn2)n1`: -3.3%; `COCCN(CCOC)c1ncc(Cl)c(C(=O)c2c(C)cc3ccccn23)n1`: -4.6%. Next, `O=C(CSc1nnc(-c2ccccc2)n1Cc1ccccc1)N1CCCC1`: 6.79%. Next, `Cc1cccc(/C=N/N(CCO)C2=NS(=O)(=O)c3ccccc32)c1`: -19.8%; `Cc1cc(=O)[nH]c(N=N/C(=N/Nc2ccccc2C)c2ccccc2)n1`: 3.58%; `CC(C)(C)c1ccc(CSc2nnc(-c3ccccc3NC(=O)c3ccccc3)o2)cc1`: -2.8%. For the compound `O=C(Nc1ccccc1)C1CCCN1/C=C/C(=O)C(F)(F)F` (centres unmarked), the “hERG current change (%, negative = inhibition) at 10uM” value was -6.34%. Next, `COc1ccc(C)cc1NC(=O)CCC(=O)Nc1ccc2nc(N3CCN(C)CC3)cc(C)c2c1`: -18.6%. In the case of `O=C1C=C(N2CCOCC2)CO1` it was 9.55%; in that of `CCCCOc1ccc(-c2ncc(N)cn2)cc1`, 16.3%.

In the case of `CCn1c(CCCNC(=O)c2ccco2)nc2ccccc21`, the “hERG current change (%, negative = inhibition) at 10uM” value turned out to be 11.6%. Next, `N#CC1=C(N)SC(N)=C(C#N)C1c1ccc(C(F)(F)F)cc1`: 15.1%. In the case of `CNC(=O)CN(c1cc([N+](=O)[O-])ccc1OC)S(C)(=O)=O` it was 4.24%; in that of `CNC(=O)NC(=O)COc1ccc2oc3c(c2c1)CCCC3`, 26.3%; in that of `COc1ccccc1NC(=O)CSc1nc(C)c2c(c1C#N)CCCC2`, 7.26%. In the case of `Cc1ccccc1OCCn1c(C)nc2ccccc21` it was -9.71%; in that of `O=C(CCNS(=O)(=O)c1ccc(Br)cc1)NC1CCC(O)CC1` (centres unmarked), 18%; in that of `O=C(NC1CCN(S(=O)(=O)c2ccccc2)CC1)c1ccc(F)cc1`, -13.3%.

Regarding `O=C(NCC1CCCO1)c1ccc2c(=O)n(Cc3ccco3)c(SCC(=O)N3CCCC3)nc2c1` (centres unmarked), the “hERG current change (%, negative = inhibition) at 10uM” value was -79.3%. In the case of `CCOC(=O)/C(=N/O)C1=NC(C)(C)Cc2cc(C)c(C)cc21` it was 3.67%; in that of `CCOc1ccc(N2CC(C(=O)NNC(=O)c3ccc(F)cc3)CC2=O)cc1` (centres unmarked), -25.4%.

Turning to `O=C(NCC1CCCO1)c1cnn2c1NC(c1ccccc1)CC2C(F)(F)F` (centres unmarked), the “hERG current change (%, negative = inhibition) at 10uM” value worked out at 1.68%.

`CC(=O)c1c(C)n(C)c2ccc(OC(=O)c3ccco3)cc12`: the “hERG current change (%, negative = inhibition) at 10uM” value is -1.35%. With `COc1ccc(N2CCN(C(=O)C3CCN(S(=O)(=O)c4c(C)noc4/C=C/N(C)C)CC3)CC2)cc1`, the “hERG current change (%, negative = inhibition) at 10uM” value is on record as -53.8%. Next, `COc1ccc(N2CCCCn3c2nc2c3c(=O)[nH]c(=O)n2C)cc1`: -9.2%; `N#Cc1c(NC(=O)CN2CCOCC2)oc(-c2ccccc2)c1-c1ccccc1`: -27.3%; `Cc1ccc(S(=O)(=O)N2CCC(N3CCCCCC3)CC2)cc1`: -23.2%. On to `CCCN(CC(=O)Nc1ccccc1C)C(=O)c1ccc(=O)n(Cc2ccccc2)n1`, for which the “hERG current change (%, negative = inhibition) at 10uM” value is listed as -0.41%. Consider `CS(=O)(=O)N1CCN(c2ccccc2NC(=O)c2cccnc2Cl)CC1`, for which the “hERG current change (%, negative = inhibition) at 10uM” value is -3.05%. In the case of `O=S(=O)(NCCc1ccc(Cl)cc1)c1cccs1` it was -13.7%; in that of `Cc1ccc(Oc2ccc(C(=O)NC3CCSC3=O)cn2)cc1` (centres unmarked), 12%. With `COc1ccccc1NC(=O)C(=O)N/N=C(\C)CC(=O)Nc1ccccc1C(F)(F)F`, the “hERG current change (%, negative = inhibition) at 10uM” value is 1.39%. On to `Cc1nc(SCC(=O)O)c2oc3ccccc3c2n1`, for which the “hERG current change (%, negative = inhibition) at 10uM” value is recorded as 3.47%.

For the compound `COc1ccc(Cn2nnc3c(=O)[nH]c(C4CCN(S(=O)(=O)c5ccc(C)cc5)CC4)nc32)cc1`, the “hERG current change (%, negative = inhibition) at 10uM” value is 11.1%. In the case of `O=C(NC1CCCC1)C(c1ccc(N2CCOCC2)cc1)N(Cc1ccccc1)C(=O)c1ccco1` (centres unmarked) it was 2.44%; in that of `O=C(/C=C/c1ccc(S(=O)(=O)N2CCOCC2)cc1)NCc1ccccc1F`, -0.948%; in that of `N#C/C(=C/c1ccc(Oc2ccc([N+](=O)[O-])cn2)cc1)C(=O)N1CCOCC1`, -13.3%. Next, `CNC(=S)NCc1ccc2[nH]c3c(c2c1)CCCC3`: -3.58%; `CC(C)(CCl)C(=O)Nc1ccc(C(F)(F)F)cc1`: 5.42%. In the case of `Cc1ccc(-c2csc3nnc(SCC(=O)Nc4cccc(C)n4)n23)cc1` it was -7.84%; in that of `CC1CN(C(=O)CN2C(=O)NC(C)(c3ccccc3)C2=O)CC(C)O1` (centres unmarked), 8.79%; in that of `Cc1ccc(C(=O)O)cc1NC(=O)C1=CSCCO1`, 10.5%.

`CC1(C)Cc2c(c(=S)nc(-c3ccccc3)n2CCOCCO)CO1`: the “hERG current change (%, negative = inhibition) at 10uM” value is listed as -16.3%. In the case of `COc1ccc(-c2nc3ccccc3c(=O)n2NC(=O)c2cccnc2Cl)cc1OC` it was 7.24%; in that of `CCOc1ccc(N2C(=O)CC(Cc3ccccc3OC)C2=O)cc1` (centres unmarked), 3.64%; in that of `O=C(CCNC(=O)c1ccc([N+](=O)[O-])cc1)NNC(=O)c1ccncc1`, -13.2%. `Cc1nn(Cc2ccccc2Cl)c(C)c1NC(=O)CCCn1nc(C)c([N+](=O)[O-])c1C`: the “hERG current change (%, negative = inhibition) at 10uM” value is reported as -30.7%.

For the compound `[O-][N+]1=C2CCC/C(=N\O)C2=NC12CCCCC2`, the “hERG current change (%, negative = inhibition) at 10uM” value came to 4.64%. Next, `O=C1c2ccccc2C(=O)N1Cc1nc2ccccc2c(=O)n1Cc1ccco1`: 21.3%; `Cc1cc(C)n(-c2ccc(NC(=O)C3CCN(Cc4ccc(C)o4)CC3)cc2)n1`: -16.6%.
